# The source gives no read counts; variants with many changes may rest on few reads.
# B1: LINE1-full (parent)
# chain: UACGUAGGUGGUUUUCCCCUGAUAGUGCUAAGGGGGCCUGGAAGUUUGGACUGGGCAGAGCUCAACACAGCGUGGCAAAGUGGCUGUGGCUAGACUGCCUCUCUGGAUUCCUCGUCACUCAGCAGGGCAUCUCUGAGAGAAAUGCC
# B2: LINE1-mini (parent)
# chain: GGCAGAGCUCAACACAGCGUGGCAAAGUGGCUGUGGCUAGACUGCC
# Variants of: B1
# Test: self-cleavage, relative activity (ratio to wild type); higher = more cleavage; in vitro, sequencing; the parent is a self-cleaving ribozyme
row,Variant,self-cleavage
1,UACGUAGGUGGUUUUCCCCUGAUAGUGCCAAGGGGGCCUGGAAGUUUGGACAGGGCAGAGCUCAACACAGCGUGGCAAAGUGGCUGUGGCUAGACUGCCUCUCAGGAUUCCUCGUCACUCAGCAGGGCACCUCUGAGAGAAAUGCC [U29C U52A U104A U130C],1.4
2,UACGUAGGUGGUUCUCCCCUGAUAGUGCUAAGGGGGCCUGGAAGUUUGGACUGGGCAGAGCUCAACACUGCGUGGCAAAGUGGCUGUGGCUAGACUGCCUCUCUGGGUUCCUCGUCACUCAGCAGGGCAUCUCUGAGAGAAAUGCC [U14C A69U A107G],0.05
3,UACGUAGGUGGUUUUCCCCUGAUAGUGCUAAGGGGGCCUGGAGGAUUGGACUGGGCAGAGCUCAACACAGCGUGGCAAAGUGGCUGUGGCUAGACAGCCUCUCUGGAUUCCUCGUCACUCAGCAGGACAUCUCUGAGAGAAAUGCC [A43G U45A U96A G127A],0
4,UACGUAGGUGGUUUUCCCCUGAUAGUGCUAAGGGGGCCUGGGAGUUUGGACUGGGCAGAGCUCAACACAGCGUGACAAAGUGGCUGUGGCUAGACUGCCUCUCUGGAAUCCUCGUCACUCAGCAGGGCAUCUCUGAGAGAAAUGCC [A42G G75A U108A],0.74
5,UACGUAGGUGGUUUCCCCCUGAUAGUGCUAAGGGGGCCUGGAAGUCUGGACUGGGCAGAGCUCAACACAGCGUGGCAAAGUGGCUGUGGCCAGACUGCCUCUCUGGGUUCCUCGUCACUCAGCAGGGCAUCUCUAAGAGAGAUGCC [U15C U46C U91C A107G G135A A141G],2.42
6,UACGUAGGUGGUUUUCCCCUGAUAGUGCUAAGGGGGCCUGGAAGGUUGGACUGGGCAGAGCUCAACACAGCGCGGCAAAGUGGCUGUGGCUAGACUGCCUCUCUGGAUUCCUCGUCACUCAGCAGGGCAUCUCUGAGAGAAGUGCC [U45G U73C A142G],1.08
7,UACGUAGGUGGUUUUCCCCUGAUAGUGCUAAGGGGGCCUGGAAGUUUGGACUGGGCAGAGCUCAACACUGCGUGGCAAAGUGGCUGUGGCUAGACUGCCUCUCUGGAUUCCCCGUCACUCAGCAGGGCAUCUCUGAGUGAAAUGCC [A69U U112C A138U],0.09
8,UACGUAGGUGGUUUUCCCCUGAUAGUGCUAAGGGGGCCUGGAAGUAUGGACUGGGCAGAGCUCAGCACAGCGUGGCAAAGUGGCUGUGGCUAGACAGCCUCUCUGGAUUCCUCGUCACUCAGCAGGGCAUCCCUGAGAGAAAUGCC [U46A A65G U96A U132C],0
9,UACGUAGGUGGUUUUCCCCUGAUAGUGCUAAGGGGGCCUGGAAGUCUGGACUGGGCAGAGCUCAACACUGCGGGGCAAAGUGGCUGUGGCUAGACUGCCUCUCUGGAUUCCUCGUCACUCAGCAGGGCAUCUCUGAGAGAAAUGCC [U46C A69U U73G],0.16
10,CACGUAGGUGGUUUUCCCCUGAUAGUGCUAAGGGGGCCUGGAAGUCUGGACUGGGCAGAGCUCAACACAGCGUGGCAAAGUGGCUGUGGCUUGACUGCCUCUCUGGAUUCCUCGUCACUCAGCAGGGCAUCUCUGAGAGAAAUGCC [U1C U46C A92U],0.24
11,UACGUAGGUGGUUUUCCCCUGAUAGUGCUAAGGGGGCCUGGAAGUCAGGACUGGGCAGAGCUCAACACAGCGUGGCAAGGUGGCUGUGGCUAGACUGCCUCUCUGGAUUCCUCGUCACUCAGCAGGGCAUCUCUGAGAGAAAUGCC [U46C U47A A79G],0
12,UACGUAGGUGGUUUUCCCCUAAUAGUGCUAGGGGGGCCUGGAAGUUUGGAUUGGGCAGAGCUCAACACAGCGUGGCAAAGUGGCUGUGGCUAGACUGCCUCUCUGGAUUCCUCGUCACUCUGCAGGGCAUCUCUGAGUGAAAUGCC [G21A A31G C51U A121U A138U],0.7
13,UACGUAGGUGGUUUUCCCCUGAUAGAGCUAAGGGGGCCCGGAAGUUUGGACUGGGCAGAGCUCAACACAGCGUGGCAAAGUGGCUGUGGCUAGACUGCCUCUCUGGAUUCCUCGUCACUCAGCAGGGCAUUUCUGGGAGAAAUGCC [U26A U39C C131U A136G],1.02

# Variants of: B2
# Test: as above
row,Variant,self-cleavage
1,AGCAGAGCUCAACGCAGGGUGGCAAAGUGGCUGUGGCUAGACUGCC [G1A A14G C18G],0.03
2,AGCAGAGCUCACCACAGAGUGGCAAAGUGGCUACGGAUAGACUUCC [G1A A12C C18A G33A U34C C37A G44U],0.08
3,AGCAGAGCUCGACACAGCGUGGUAAAGUGGCUGUGGCUACACUGCC [G1A A11G C23U G40C],0.02
4,AGAAGAGCUUAACACAGCGUGGCAAAGUGGCUGUGGCAAGACUGCC [G1A C3A C10U U38A],0.88
5,AGGAGAGCUAAACACAGCGUGGCAAAGUGGCUGUGGCUAGAUUGCC [G1A C3G C10A C42U],0.04
6,AGCAGAGCUCAACCCAGCGUGGCAAAGUGGCUGCGGCUAGACUGCC [G1A A14C U34C],0.02
7,AGCAGAGCUCGACACAGCGUGACAAAGUGGCUGUGGCUAGACUGCC [G1A A11G G22A],0.04
8,AGCAGAGCUCAACACUGCGUGGUAGAGUUGCUGUGGCUAGACUGCC [G1A A16U C23U A25G G29U],0.02
9,AGCGCAGCUCAACAGAGCGUGGCAAACUGGCUGUGGCUAGACUGCG [G1A A4G G5C C15G G27C C46G],0.02
10,AGCAGUUUUCAACACAGCGUGGCAAAUUGGCUAUGGCUAGACUGCC [G1A A6U G7U C8U G27U G33A],0.38
11,AGCAGCGCUCAACACAGCGUGGUAAAGUGGCUGCGGCUAGACUGCC [G1A A6C C23U U34C],0.29
12,AGCAGAGCUCCACACAGCGUUGCAAAGUGGCUGUGGCUAGACUGAC [G1A A11C G21U C45A],0.01
13,AGCAGAGCUCAACUCAGCGUGGCAGAGUGGCUGUGGCUAGACCGCC [G1A A14U A25G U43C],0.14
14,AGCAGCGCUAAACACAGUGUGGCAAAGUGGCUGGGGAUAAACUUCC [G1A A6C C10A C18U U34G C37A G40A G44U],0.05
15,AGUAGCGCUCAACUCAGAGUGGCAAAGUGGCUGUGGCUAGACUGCC [G1A C3U A6C A14U C18A],0.08
16,AGCAGAGCUCAACACAGCGUGGCAAAGUGGCUGUGGCUUGACGGCC [G1A A39U U43G],0

row,Variant,self-cleavage
1,AGAAGAGCUCAACACAGCUUGCCCAAGUGGCUGUUGCUAGACUGCC [G1A C3A G19U G22C A24C G35U],2.54
2,AGCAGAGCUCAGCACAGCCUGGCAAAGGGGCUGCGGCUAGACUGCC [G1A A12G G19C U28G U34C],0.01
3,AGGAGAGCUCAACACCGCGUGGCAAAGUUGCUGUGGCUCGACUGCC [G1A C3G A16C G29U A39C],0.52
4,AGCAGAGCUCAACACUGCGUGGCAAAGUGGCUGUUGCUAGACUGCC [G1A A16U G35U],0.18
5,AGCAGAGCUCCACACAGCGUGGCAAAGUGGCUGUCGCUACACUGUC [G1A A11C G35C G40C C45U],0.01
6,AGCAGAGCUCCACACAGCGUGGCAAAGUGGCUGUGGCUAGACUGCA [G1A A11C C46A],0.04
7,AGCGGAGUUCAUUACAGCGUGGCAAAGGGGCUGUGGCUAGACUGCC [G1A A4G C8U A12U C13U U28G],0.04
8,AGCAGAGCUCAACACAGCGUGGCCAGGUGGCUGUGGCUAGACUGUC [G1A A24C A26G C45U],0.12
9,AGCAGAGCUCAACACAGCGUGGCAGAGUGGCUGUGGGUAGAAUGAC [G1A A25G C37G C42A C45A],0.06
10,AGGAUUGCUCAACAGAGCGUGGCAAAGUGGCUGUGGCUAGACUGCC [G1A C3G G5U A6U C15G],0.09
11,AGCAGAGCUCAACACUGCGUGGGAAAGUUGCUGUGGCAAGACUGCC [G1A A16U C23G G29U U38A],0.06
12,AGCAGAGCUCAACGCAGCGUGGCAUAGUGGAUGAGGAUAGACUGCC [G1A A14G A25U C31A U34A C37A],0.01
13,AGAAGAGCUCAACACAGCGUGGCAAAGUGGCUGUGGCUAGAUUGCA [G1A C3A C42U C46A],0.71
14,AGCAGAGCUCAACACAGCGUGGCAUAGUGGCUGUGGCUACCCUGCC [G1A A25U G40C A41C],0.08
15,AGCAGAGCUCAACUCAGCGUGGCAAAGUGUAUGUGGCUAGACUGCC [G1A A14U G30U C31A],0.04

# From the RNAGym collection of RNA variant scans (doi:10.7554/elife.90254)
